Source: article PMC4336329 (PLoS ONE, 2015)
Out of some 310,000 compounds screened, about 14,000 (4.5%) showed an effect of 50% or more. Effects have a minus sign here. Some of the results follow.

Biological target: human ether-à-go-go-related gene (hERG) potassium channel (human, UniProt Q12809)
Assay: primary screen, population patch clamp on CHO cells stably expressing hERG
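Further: peak tail current of the secondary pulse compared with the same well before compound.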

Sequence of human ether-à-go-go-related gene (hERG) potassium channel (Q12809 whole entry, looked up): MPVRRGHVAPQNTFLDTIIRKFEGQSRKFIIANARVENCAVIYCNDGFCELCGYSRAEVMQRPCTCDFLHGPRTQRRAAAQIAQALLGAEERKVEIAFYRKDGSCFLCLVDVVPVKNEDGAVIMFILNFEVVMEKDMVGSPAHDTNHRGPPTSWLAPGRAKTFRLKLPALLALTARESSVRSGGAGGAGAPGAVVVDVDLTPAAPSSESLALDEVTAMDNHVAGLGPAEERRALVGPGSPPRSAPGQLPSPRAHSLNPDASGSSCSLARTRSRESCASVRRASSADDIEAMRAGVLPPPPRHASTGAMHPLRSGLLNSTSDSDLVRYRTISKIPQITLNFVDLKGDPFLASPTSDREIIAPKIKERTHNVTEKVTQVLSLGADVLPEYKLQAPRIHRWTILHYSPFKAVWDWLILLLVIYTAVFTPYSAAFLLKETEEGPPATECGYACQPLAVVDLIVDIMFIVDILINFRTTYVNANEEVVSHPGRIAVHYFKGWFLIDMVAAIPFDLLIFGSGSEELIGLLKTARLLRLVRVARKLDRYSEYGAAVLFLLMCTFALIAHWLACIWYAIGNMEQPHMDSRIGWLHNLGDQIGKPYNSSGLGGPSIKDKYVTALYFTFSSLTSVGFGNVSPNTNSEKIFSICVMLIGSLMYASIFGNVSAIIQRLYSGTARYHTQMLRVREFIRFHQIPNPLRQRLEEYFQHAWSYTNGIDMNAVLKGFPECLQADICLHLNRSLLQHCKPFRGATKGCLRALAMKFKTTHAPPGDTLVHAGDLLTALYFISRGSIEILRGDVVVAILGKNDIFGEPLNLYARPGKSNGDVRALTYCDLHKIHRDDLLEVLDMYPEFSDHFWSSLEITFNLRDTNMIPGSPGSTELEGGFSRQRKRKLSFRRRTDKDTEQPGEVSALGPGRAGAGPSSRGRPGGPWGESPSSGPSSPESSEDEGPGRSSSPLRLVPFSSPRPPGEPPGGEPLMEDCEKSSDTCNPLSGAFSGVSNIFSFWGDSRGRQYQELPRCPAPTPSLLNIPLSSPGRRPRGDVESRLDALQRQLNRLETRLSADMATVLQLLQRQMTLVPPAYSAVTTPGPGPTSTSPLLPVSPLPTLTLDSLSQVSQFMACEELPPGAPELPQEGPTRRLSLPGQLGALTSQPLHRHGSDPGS

Row | SMILES | hERG current change (%, negative = inhibition) at 10uM [%]
1 | Cc1ccnc(NS(=O)(=O)c2ccc(N=Cc3c(O)n(C)c(=O)n(C)c3=O)cc2)n1 | 14.3
2 | CC(C)c1c(C(=O)N/N=C2\CCc3ccccc32)nnn1-c1nonc1N | 19
3 | CC1(C)CC(=O)C2=C(C1)OC(N)=C(C#N)C2c1ccccc1[N+](=O)[O-] (stereo not drawn) | -28.3
4 | Br.Cc1ccc2nc(-c3ccc(N4C(=N)SC5CS(=O)(=O)CC54)cc3)sc2c1 (stereo not drawn) | 0.407
5 | Cc1ccc(S(=O)(=O)NC2=NCN(CCOC(=O)c3ccccc3)CN2)cc1 | 1.57
6 | Cl.NC(Cc1nc2ccccc2[nH]1)c1ccc(Cl)cc1 (stereo not drawn) | -20.2
7 | CCNc1cc(Cl)nc(SC)n1 | -15.3
8 | Cc1c(CCC(=O)NCCCn2ccnc2)c(=O)oc2c(C)c3occ(C(C)(C)C)c3cc12 | -67
9 | COc1ccc(CC(=O)NC(C)(C)C)cc1S(=O)(=O)N1CCOCC1 | 10.3
10 | CC1(C(=O)NC2CCCC2)CCC(=O)N1CCC1=CCCCC1 (stereo not drawn) | 5.41
11 | O=C(CCCNc1ccccc1)N/N=C/c1cccs1 | -9.99
12 | Cc1ccc(OCC(=O)NCc2ccco2)c([N+](=O)[O-])n1 | -6.51
13 | COc1cc2c3nnc(-c4ccc(F)cc4)c-3cn(Cc3cccc(C)c3)c2cc1OC | -1.27
14 | COc1ccc(OC)c(CC(NC(C)=O)C(=O)NC2CCN(c3nc(OC)nc(OC)n3)CC2)c1 (stereo not drawn) | 31.8
15 | O=C(CSc1cn[nH]n1)Nc1ccccc1C(=O)O | 11.8
16 | CCCS(=O)(=O)N1CCC(C(=O)NCc2cccnc2)CC1 | 8.85
17 | Cc1cccnc1NC(=O)Cn1nc([N+](=O)[O-])cc1C | -2.42
18 | COc1cc2c(cc1OC)C(C(=O)NCCN(C)C)C(c1cccs1)N(C)C2=O (stereo not drawn) | 2.79
19 | Cc1cnc(C(=O)Nc2ccc(S(=O)(=O)NCC(C)C)cc2)cn1 | 37.4
20 | Cc1c(NC2=NC3(CCCCC3)Cc3ccccc32)c(=O)n(-c2ccccc2)n1C | -14.3
21 | Br.Cc1cc(NS(=O)(=O)c2ccc(Nc3nc(-c4sc(NC(=O)c5ccccc5)nc4C)cs3)cc2)no1 | 5.2
22 | CC1=CC(C)(C)N2C(=O)C3(N=C(N)NC(Nc4ccccc4)=N3)c3cc(C)cc1c32 (stereo not drawn) | -5.62

Row | SMILES | hERG current change (%, negative = inhibition) at 10uM [%]
23 | COc1ccc(CCN2CC(C(=O)NCCc3ccccc3C)CCC2=O)cc1 (stereo not drawn) | -29.9
24 | O=C(NN1C(=O)CSC1=S)C(=O)NN1C(=O)CSC1=S | 25.3
25 | OC1(c2ccccn2)COc2ccccc2O1 (stereo not drawn) | -10.5
26 | COc1ccc(NC(=O)CN2CCC3(O)CCCCC3C2c2cc(OC)ccc2OC)cc1 (stereo not drawn) | -14
27 | N#CC/C(N)=N/NC(=O)CCCNc1ncc(C(F)(F)F)cc1Cl | 17
28 | COc1ccccc1NS(=O)(=O)c1cccc(C(=O)NNC(=O)C(NC(N)=O)C(C)C)c1 (stereo not drawn) | 3.59
29 | CCc1ccc(NC(=O)c2ccc(OC)c([N+](=O)[O-])c2)cc1 | -4.65
30 | C#CCOc1c(/C=C\c2nc(O)c([N+](=O)[O-])c(=O)[nH]2)cc(Br)cc1OC | 20.6
31 | COc1ccc(/C=C2\CCC/C(=C\C=N\N(C)C)C2=O)cc1 | 2.29
32 | Cc1ccc(/C=N/NC(=O)c2cc(C)oc2C)cc1 | 4.58
33 | CC1CCN(C(=O)CSc2ccc(-c3cccc([N+](=O)[O-])c3)nn2)CC1 | -49.6
34 | CN1CCN(CCCNC(=O)Cn2ncc3c4ccccc4n(C)c3c2=O)CC1 | 12
35 | O=C(CSc1nc(-c2ccco2)cc(C(F)(F)F)n1)NCC1CCCO1 (stereo not drawn) | -4.45
36 | CCOC(=O)C1CCN(Cc2ccc(F)c(F)c2)CC1 | 11
37 | COC(=O)c1[nH]c2ccc(C)cc2c1NC(=O)NC1CCCCC1 | 8.55
38 | O=C(c1ccc(=O)[nH]n1)N1CCN(S(=O)(=O)c2ccc3ccccc3c2)CC1 | -2.3
39 | COC(=O)[C@@]12CCCCN1[C@H](c1ccc(-c3ccc(C(C)=O)cc3)c(OC)c1)[C@@H]1C(=O)N(C)C(=O)[C@@H]12.O=C(O)C(F)(F)F | 0.453
40 | CC(C)OCCCNC(=O)c1ccc2c(c1)S(=O)(=O)c1ccccc1C2=O | -21.9
41 | CCOC(=O)C1(Cc2ccccc2Cl)CCN(C(=O)c2cc(C)on2)CC1 | -34.8
42 | C[N+]1(CCCCCCC(=O)/C=N/O)CCCCCC1.[I-] | 15.6
43 | COc1cccc(NC(=O)CN(C)C(C)C(=O)Nc2ccc(C#N)cc2)c1 (stereo not drawn) | -59.3
44 | COc1cccc(CNS(=O)(=O)c2c(C(=O)N3CCCCC3)c(C)n(C)c2C)c1 | 9.63

Row | SMILES | hERG current change (%, negative = inhibition) at 10uM [%]
45 | O=C(Cc1ccccc1)N1CCCC(c2nc(-c3cccs3)no2)C1 (stereo not drawn) | -7.1
46 | CC(C)(C)c1ccc(NS(=O)(=O)c2ccc(N)cc2)cc1 | 8.08
47 | COc1ccc(-n2cc(C(=O)O)c(=O)cc2C)cc1 | 5.98
48 | CN(C)c1ccc(-c2nnn(CC(=O)NCc3ccc4c(c3)OCO4)n2)cc1 | -0.969
49 | C/C(=C\C(=O)c1ccc(Br)cc1)N1CCCCC1 | -31.7
50 | N#Cc1ccccc1Sc1ccccc1C(=O)OCC(N)=O | 10.7
51 | COc1ccc(Cn2ccnc2SCC(=O)Nc2ccccc2F)cc1 | -6.04
52 | Cc1cc(OCc2cc(C(=O)NCCN3CCCCC3CO)no2)cc(C)c1Cl (stereo not drawn) | -65.8
53 | COc1ccc(/C=N/NC(=O)c2nn(-c3ccc(Cl)cc3)c(=O)c3c(N)scc23)cc1 | 3.8
54 | Cc1cc(-c2onc(C)c2C(N)=O)no1 | 12.5
55 | O=C(c1ccccc1)N1CCN(c2ccc(N3CCOCC3)nn2)CC1 | -1.73
56 | CC(C)C(=O)NNS(=O)(=O)c1ccccc1 | 29
57 | COc1cc(/C=C/C(=O)OCC(=O)N2c3ccccc3NC(=O)C2(C)C)cc(OC)c1OC | -11.8
58 | O=C1CCCC(O)=C1N=Nc1ccc2c(c1)OCO2 | 2.59
59 | CCN(CC)S(=O)(=O)c1ccc(OC(C)C)c(N)c1 | 7.23
60 | CSc1ccc(CN(C)C(=O)c2cc(=O)c3ccccc3o2)cc1 | -71.4
61 | O=C(CN(c1ccc(F)cc1)S(=O)(=O)c1ccccc1)NCc1ccco1 | -5.91
62 | O=C(NC1CCCCC1)N1CCCCCC1 | -3.92
63 | Cc1sc2nc(CSC(C)C(=O)Nc3ccc(C(N)=O)cc3)[nH]c(=O)c2c1C (stereo not drawn) | 2.13
64 | O=C(CSc1nnc2c(n1)[nH]c1ccc(F)cc12)NCc1ccc(F)cc1 | 5.3
65 | CC(=O)Nc1ccc(NC(=O)Cn2c(=O)n(-c3ccc(F)cc3)c(=O)c3oc4ccccc4c32)cc1 | 10.3
66 | COc1ccc(N2CCN(CCCNC(=O)Nc3ccccc3)CC2)cc1 | -64.5

Row | SMILES | hERG current change (%, negative = inhibition) at 10uM [%]
67 | CN(CC(=O)Nc1ccccc1Br)C(=O)c1cccnc1Nc1cccc(C(F)(F)F)c1 | 25.5
68 | COc1ccccc1N1CC(C(=O)Nc2nc(C)cs2)CC1=O (stereo not drawn) | -9.32
69 | COc1cc(/C=C/c2ccc3cccc(O)c3n2)cc(Br)c1OC | 15.7
70 | CSc1nc(C(C)C)ccc1CNC(=O)CC(C)c1ccccc1 (stereo not drawn) | 6.46
71 | C=CCN1C(=NC(=O)CCCC(=O)O)SC2CS(=O)(=O)CC21 (stereo not drawn) | -6.11
72 | CCCN1CCC(NC(=O)Cc2ccccc2OC)CC1 | -3.66
73 | O=C(NNC1=C(C(=O)C(F)(F)F)CCC1)c1cccc(Cl)c1 | 7.77
74 | CC1=CC(C)(C)Nc2ccc(Cc3ccc4c(c3)C(C)=CC(C)(C)N4)cc21 | 13.9
75 | O=C(Cn1c(=O)c2c(ncn2Cc2ccccc2)n(Cc2ccccc2)c1=O)NC1CC1 | 10.8
76 | CCCCn1nc(C(=O)Nc2c(C)n(C)n(-c3ccccc3)c2=O)c2ccccc2c1=O | -17.9
77 | Cc1ccc(C(=O)NCC(=O)NC2CCCC2)cc1 | 29.2
78 | O=C(CSc1nnc(SCc2ccccc2)s1)N/N=C/C=C\c1ccco1 | 9.17
79 | O=C(CSc1nc2ccccc2s1)Nc1cc(S(=O)(=O)N2CCOCC2)ccc1Cl | -26.2
80 | O=C(CN1CCN(c2ccc(Cl)cc2)CC1)NCc1ccccc1 | -51.3
81 | Cc1ccc(C)c(SCC(=O)Nc2cccnc2Cl)c1 | 0.545
82 | COc1cc(/C=C/C(O)=C/C(=O)/C=C/c2ccc(O)cc2)ccc1O | 18.9
83 | CCOc1ccc(CCNC(=O)CS(=O)Cc2nc(-c3ccccc3C)oc2C)cc1OCC (stereo not drawn) | 9.37
84 | CCOc1cccc(-c2csc(C3COc4ccccc4O3)n2)c1.Cl (stereo not drawn) | 6.57
85 | O=C(Cn1c(=O)n(CCC(=O)N2CCCCC2)c(=O)c2sccc21)NCc1ccccc1 | 5.68
86 | Cc1cccc(C(=O)NCCC(=O)NCc2ccccc2F)c1 | -0.878
87 | O=C(CN1C(=O)NC2(CCCC2)C1=O)Nc1cc(Cl)ccc1N1CCCCC1 | -1.33
